Out of some 44,000 compounds screened, about 340 (0.77%) were called active. Inconclusive results (about 5%) are left out. Calls follow the shape of the dose curve; as a rule, active = well fitted inhibition curve with a large enough effect; inconclusive = small, poorly fitted or top-dose-only effect; inactive = flat fitted curve, though single readings scatter. The list shows a part of the results.
experiment: Acumen qHTS Assay for Inhibitors of the mTORC1 Signaling Pathway in MEF (Tsc2-/-, p53-/-) Cells: Sytravon; settings: phospho-rpS6 immunofluorescence/PI, 24 h; series mostly up to 38.3 µM; activity change, negative = inhibition: at the top concentration;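 also: plate controls were DMSO for no effect and rapamycin for full effect; nearly all actives have a fitted effect of over 50% in size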
In short: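 Read-out: phospho-S6 Alexa-488 intensity over PI intensity per well, scored as % active cells using thresholds from rapamycin (7.5 nM) and DMSO controls. Tsc2-/-, p53-/- MEFs exposed to compound for 24 h; PI cell count recorded as viability.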

Activity change, negative = inhibition, inactive:
Cc1cc2cc(CCNS(=O)(=O)c3ccc(Br)cc3)c(=O)[nH]c2cc1C 2.65%
Cc1ccc(NC(=O)c2cc(S(=O)(=O)N3CCC(C)CC3)cn2C)cc1Cl -2.7%
COc1ccccc1C(=O)Nc1ccc2nc(SCC(=O)N3CCCC3)sc2c1 -0.265%
Cc1ccc2nc(-c3ccsc3)c(Nc3ccc(C(C)C)cc3)n2c1 0.342%
COCCNC(=O)CCCn1c(SCC(=O)c2ccc(F)cc2)nc2c(sc3ccccc32)c1=O 1.95%
Cc1ccc(NC(=O)/C(C#N)=C\c2ccc(-c3ccc(Cl)cc3)o2)c(C)c1 6.47%
CCc1ccc(NC(=O)C(=O)NCCc2csc(-c3cccc(F)c3)n2)cc1 -9.06%
Cc1ccc(C)c(Nc2nnc(-c3ccc(C)c(S(=O)(=O)N4CCN(C)CC4)c3)c3ccccc23)c1 -9.77%
CCOc1ccc(NC(=O)CSc2oc(-c3cccs3)nc2S(=O)(=O)c2ccc(C)cc2)cc1 0%
CCn1nc(C)c2c(-c3ccccc3)cc(=O)n(C(C)C(=O)Nc3cccc(F)c3)c21 (centres undefined) -3.69%
Cc1ccc(C2=CC(c3ccccc3C)n3c(nc4ccccc43)N2)cc1 (centres undefined) -7.02%
Cc1ccn2c(Nc3ccccc3C)c(-c3ccc(N4CCOCC4)cc3)nc2c1 -0.974%
O=C(COc1ccc(Cl)cc1)NCC(c1ccco1)S(=O)(=O)c1ccccc1 (centres undefined) -2.45%
COc1ccccc1NC(=O)c1sc2nc3c(c(C(F)(F)F)c2c1N)CN(C(C)=O)CC3 -13.1%
Cc1ccccc1CCNC(=O)c1ccc(NC(=O)N2CC(C)Sc3ccccc32)cc1 (centres undefined) -9.17%
Cc1nn(-c2ccc(N3CCOCC3)nn2)c(C)c1CCC(=O)NCc1ccccc1 -12.1%
COc1ccc(N2CCN(C(=O)C3CCN(Cc4nc(-c5ccc(Cl)cc5)oc4C)CC3)CC2)cc1 -11.2%
CN(C)CCNC(=O)CN1N=C(c2ccccc2)CCC1=O -23.1%
C=C(C)Cn1c(=O)c2c(nc3n2CCN3c2cc(C)cc(C)c2)n(C)c1=O 3.95%
COc1cc(C2C(=O)N(C3CCCCCC3)CC(=O)N2Cc2ccccc2)ccc1OC(C)C (centres undefined) 3.33%
COC(=O)c1ccc(NC(=O)CN(Cc2ccccc2)S(=O)(=O)c2ccc(C)cc2)cc1 1.31%
COc1ccc(CNc2nc(-c3ccc(OC)cc3)cc(C(F)(F)F)n2)cc1 -2.7%
CCCC(=O)N1CCc2cc(OC)c(OC)cc2C1COc1ccc2c(C)cc(=O)oc2c1 (centres undefined) -10.7%
COc1ccc2c(c1)CC(C(=O)NCCN1CCN(c3ccccc3F)CC1)CO2 (centres undefined) 1.37%
CCOc1ccc(NC(=O)Cn2cc(C(=O)c3ccc(CC)cc3)c(=O)c3cc4c(cc32)OCO4)cc1 -0.945%
Cc1ccc(Cl)cc1N1CCN(C(=O)c2cnn(C(C)(C)C)c2C2CCN(C(=O)OC(C)(C)C)CC2)CC1 -3.76%
CCCSc1ncc(Cl)c(C(=O)Nc2ccc(S(=O)(=O)N3CCC(C)CC3)cc2)n1 -6.84%
CCC(Sc1ncc(S(=O)(=O)c2ccc(C)cc2)c(=O)[nH]1)C(=O)Nc1cc(C)ccc1C (centres undefined) -4.27%
CCc1ccc(NC(=O)CN2CCN(C3CCCCC3)C(=O)C2=O)cc1 0%
O=C(Nc1c(C(=O)c2ccc(Cl)cc2)oc2ccccc12)c1cc(=O)c2ccccc2o1 4.08%
CCN(C(=O)CSc1nc2ccccc2n1Cc1ccc(C(=O)OC)cc1)c1ccccc1 0%
CCc1nc2ccc(C(=O)NCc3ccc(N(C)C)cc3)cc2nc1CC -0.296%
Cc1ccc2oc(=O)c(S(=O)(=O)c3ccc(F)cc3)cc2c1 -3.02%
COc1ccc(NC(=O)c2ccco2)cc1NC(=O)c1ccc(C)c(C)c1 -12%
COc1ccc(CCN2C(=O)NC(NC(=O)c3ccccc3OC)(C(F)(F)F)C2=O)cc1OC (centres undefined) 1.29%
Cc1cccc(C)c1Nc1c(-c2ccc(N3CCOCC3)cc2)nc2ncccn12 -0.101%
CCN(CC)CCN(C(=O)c1ccco1)c1nc2c(C)c(C)ccc2s1 -6.42%
CNC(=O)c1c(NC(=O)c2cc(=O)c3cc(C)c(C)cc3o2)sc2c1CCCC2 2.78%
Cc1ccc(CSCCC(=O)N2CCN(c3ccc(F)cc3)CC2)cc1 -26.4%
COc1ccccc1CNC(=O)Cn1c(-c2ccc(F)cc2)cc(C(C)=O)c1C 0.26%
O=C(Cn1nc(Cc2ccncc2)c2ccccc2c1=O)Nc1cccc(C(F)(F)F)c1 -13%
COc1ccc(N2CCN(C(=O)CN3CCSc4ccccc43)CC2)cc1 0.532%
CCn1c(=O)cc(OCC(=O)N2CCN(c3ccc(C(C)=O)cc3)CC2)c2ccccc21 -1.25%
CN(C(=O)c1c[nH]c2ccc(S(=O)(=O)Nc3cccc(C(F)(F)F)c3)cc2c1=O)C1CCCCC1 0.214%
Cc1ccc(-c2cc(C(F)(F)F)n3nc(-c4cccc(Br)c4)cc3n2)cc1 -4.1%
CC(=O)Nc1ccc(NC(=O)CN2C(=O)CC(c3ccco3)Sc3ccccc32)cc1 (centres undefined) 1.3%
COc1ccccc1NC(=O)c1nn(C)c2c1CS(=O)(=O)c1ccccc1-2 0.236%
CN(C)S(=O)(=O)c1ccc(C(=O)NCCSc2c(-c3ccc(Br)cc3)[nH]c3ccccc23)cc1 2.88%
CCCCNC(=O)CC1Nc2cc(C)c(C)cc2NC1=O (centres undefined) -1.96%
Cc1c(Cl)cccc1N1CCn2c1nc1c2c(=O)n(CC(=O)O)c(=O)n1C 4.17%
COc1ccc(Cl)cc1NC(=O)Nc1c[nH]c(=O)[nH]c1=O 0%
O=C(NCCc1ccc(Cl)cc1)c1nnc(Cc2ccc(F)cc2)o1 -6.4%
Cc1ccc(NC(=O)C2CCCN(c3ncnc4onc(C)c34)C2)c(Cl)c1 (centres undefined) -4.33%
O=C(CCSCc1ccc(Cl)cc1)NCCc1ccccc1 -20.2%
CCCCc1ccc(Nc2cc(C)nc(-n3nc(C)cc3C)n2)cc1 1.65%
O=C(Nc1ccc(-c2nc3ccccc3o2)c(O)c1)c1cc(Cl)ccc1Cl 3.92%
COc1cc(OC)cc(C(=O)Nc2ccc3nc4c(c(Nc5ccc(OC)c(OC)c5)c3c2)CCCC4)c1 0%
O=C(NCC(c1cccnc1)N1CCc2ccccc2C1)C(=O)Nc1ccccc1F (centres undefined) 2.17%
CCN(C(=O)CCS(=O)(=O)c1ccc2c(c1)CCN2C(C)=O)c1cccc(C(F)(F)F)c1 4.03%
CCN1CCc2c(sc(NC(=O)c3ccc(S(=O)(=O)N(C)C4CCCCC4)cc3)c2C(N)=O)C1 5.01%
CC1Cc2cc(S(=O)(=O)CCC(=O)Nc3ccc(F)cc3)ccc2N1C(=O)C1CC1 (centres undefined) 1.6%
O=C(/C=C\c1ccc2c(c1)OCO2)NC1CC(=O)N(c2ccccc2)C1 (centres undefined) -4.51%
CSc1ccc(CNC(=O)Cn2c(-c3cccs3)cc3cc(F)ccc32)cc1 -19.5%
COc1cc(C(=O)N2CCNC(=O)C2CC(=O)Nc2ccc(C)c(C)c2)cc(OC)c1OC (centres undefined) 0.11%
Cc1ccccc1-c1nnc(SCC(=O)N(C)c2ccccc2)o1 -7.13%
CCCCNc1nc2c(-c3cccc(C)c3)nnn2c2ccccc12 -17.6%
Cc1ccc(/C=C/c2onc(C)c2S(=O)(=O)N2CCC(C(=O)Nc3ccc(OC(F)(F)F)cc3)CC2)cc1 -5.56%
COC(=O)c1ccc(NC(=O)Cn2ccn3nc(-c4ccc(OC)cc4)cc3c2=O)cc1 13.8%
Cc1ccc(CNC(=O)CCc2c(C)nc3c(-c4ccc(F)cc4)c(C)nn3c2C)cc1 -6.89%
COc1ccc2c(c1)c1c(c(=O)n(-c3ccccc3C)c(=O)n1CC(N)=O)n2C -11%
Cc1cccc(OCC(=O)Nc2cccc(C(=O)OCc3cc(=O)n4nc(C(C)C)sc4n3)c2)c1 0.477%
Cc1ccc(S(=O)(=O)Nc2cc3c(C(=O)OCc4ccccc4)c(C)oc3c3ccccc23)c(C)c1 0.312%
CCc1sc(Nc2cccc(Cl)c2)nc1-c1cc2cccc(OC)c2oc1=O -9.39%
Cc1c(C(=O)OCc2ccccc2)[nH]c2c1C(=O)CC(c1ccc(N(C)C)cc1)C2 (centres undefined) 0.635%
Cc1nn2c3c(cnc2c1-c1ccc(Cl)cc1)C(=O)CC(c1ccc(C(C)C)cc1)C3 (centres undefined) 3.97%
COc1ccc(NC(=O)CN2C(=O)C(C)(C)c3cc(S(=O)(=O)N4CCCCC4)ccc32)cc1Cl -14.9%
Cc1ccc(S(=O)(=O)C(CNC(=O)COc2ccccc2)c2cccs2)cc1 (centres undefined) -8.11%
COC(=O)C1=C(C)NC(=O)NC1c1cn(-c2ccccc2)nc1-c1ccc(OC)c(Br)c1 (centres undefined) -5.18%
CCCn1c(COc2cccc(C)c2)nc2ccccc21 -6.35%
O=c1oc2cc(O)ccc2cc1-c1nc(-c2ccc(Cl)c(Cl)c2)cs1 3.11%
COc1cccc(-n2c(SCC(=O)c3ccccc3)nc3c([nH]c4ccccc43)c2=O)c1 -1.34%
CCOc1cccc(NC(=O)c2sc3nc(-c4ccc(F)cc4)ccc3c2N)c1 -16.1%
CCSc1ncc(Cl)c(C(=O)N(Cc2ccccc2)c2ccc(OC)cc2)n1 -19.5%
COc1cc(CNCCSc2nnnn2C)ccc1OCc1ccc(C)cc1 -14.4%
O=c1c(=O)n(-c2ccccc2)ccn1Cc1c(F)cccc1Cl 0.984%
O=C(COCc1cc(-c2cccs2)on1)N1CCN(c2ccc(F)cc2)CC1 -5.93%
Cc1nc2cccnc2n1C1CCN(C(=O)Nc2ccccc2)CC1 0%
O=C(c1ccccc1)N1CCCC(c2nc3c(nnn3Cc3ccc(F)cc3F)c(=O)[nH]2)C1 (centres undefined) -0.741%
COc1cc(C(=O)Nc2ccc(-n3c(C)nc4ccccc4c3=O)cc2)cc(OC)c1OC 2.16%
Cc1cc(C)cc(N2CC(c3nnc(NC(=O)c4ccco4)s3)CC2=O)c1 (centres undefined) -8.5%
O=c1c2oc3ccccc3c2n(Cc2ccc(F)cc2)c(=O)n1Cc1ccco1 -1.06%
Cc1ccc(-c2noc(-c3ccc(NCc4cccnc4)c([N+](=O)[O-])c3)n2)cc1 6.07%
CCCCn1c(=NC(=O)c2c(-c3c(F)cccc3Cl)noc2C)c(C(=O)OCC)cc2c(=O)n3ccccc3nc21 2.95%
CCOC(=O)C1CCN(C(c2ccc(OCC)cc2)c2c(O)cc(C)n(CCOC)c2=O)CC1 (centres undefined) -1.42%

Reference: PubChem BioAssay AID493208 (National Center for Advancing Translational Sciences (NCATS), 2011)
